Reference: PubChem BioAssay AID463173 (ICCB-Longwood Screening Facility, Harvard Medical School, 2010)
In all, about 52,000 compounds went through this assay and about 1,700 (3.3%) were called active. Rule as the data show it: active = survival mostly below about 52% (no sharp cut-off); inactive = mostly above about 56%. This is one part of the list.

Tested on: Wild type
Assay: S. aureus survival, RN4220 and DeltatarO strains – OD600, teichoic acid synthesis inhibitors, primary screen (AID 463173)
Settings: S. aureus RN4220 wild type/DeltatarO growth, OD600, 18 h, hits give low values, screened at 18.75 µg/mL (by protocol)

Q: `Cc1ccc(NC(=O)c2ccc(NC(=O)N3CCSc4ncccc43)cc2)cc1Cl` was tested. Which survival did it give?
A: inactive: 129%

Q: With `O=C(NCc1ccccc1)C(c1ccc(F)cc1)N(Cc1ccco1)C(=O)c1ccccn1` (centres undefined) as the compound, how does the survival read?
A: inactive: 104%

Q: Which survival does the source give for `O=C(NC1CCCCC1)O/N=C/c1ccc(F)cc1` here?
A: inactive: 101%

Q: With `CCc1ccc(-n2nc3cc(C)c(NC(=O)c4cc(Cl)ccc4OC)cc3n2)cc1` as the compound, how does the survival read?
A: inactive: 64%

Q: With `Cc1ccc2c(=O)cc(C(=O)Nc3sc4c(c3C(=O)NCc3ccco3)CCC4)oc2c1C` as the compound, how does the survival read?
A: inactive: 87%

Q: For `COc1ccc(OCCn2c(C3CC(=O)N(c4ccc(F)cc4)C3)nc3ccccc32)cc1` (centres undefined), which survival is on record?
A: inactive: 84%

Q: How did the survival turn out when `COc1ccc(Nc2cc(C(=O)NCCc3ccccc3)c3ccccc3n2)cc1OC` was run?
A: inactive: 90%

Q: How did the survival turn out when `COc1ccc2[nH]c(=O)c(CN(Cc3ccco3)C(=S)NC3CCCCC3)cc2c1` was run?
A: inactive: 118%

Q: For `CCC(C)NC(=O)Cn1c(=O)n(Cc2ccc(C(=O)NCCCOC)cc2)c(=O)c2ccccc21` (centres undefined), which survival is on record?
A: inactive: 72%

Q: `Cc1ccc(NC(=O)c2c(N3CCCC3=O)c3cc(C)ccc3n2C)c(C)c1` was tested. Which survival did it give?
A: inactive: 127%

Q: `CCCN(C(=O)Cn1ncc2c(=O)oc3ccccc3c21)c1cccc(C)c1` was tested. Which survival did it give?
A: inactive: 79%

Q: For `Cc1ccc(CNC(=O)Cn2ncc3c(C)n(Cc4ccc(Cl)cc4)c(C)c3c2=O)cc1`, which survival is on record?
A: inactive: 84%

Q: Which survival does the source give for `COc1ccccc1Nc1cc(C)nc2nc(-c3ccccc3)nn12` here?
A: active: 14%

Q: With `CCCCOC(=O)c1ccc(NS(=O)(=O)c2c(C)nc3scc(C)n3c2=O)cc1` as the compound, how does the survival read?
A: inactive: 30%

Q: For `Cc1ccc(Cl)c2sc(N3CCN(C(=O)C4CC4)CC3)nc12`, which survival is on record?
A: inactive: 76%

Q: With `CC(C)c1ccc(NC(=O)CSc2ncc3c(n2)-c2ccccc2N(C)S3(=O)=O)cc1` as the compound, how does the survival read?
A: inactive: 90%

Q: With `COC(=O)c1c(NC(=O)c2ccc(S(=O)(=O)N3CCCC(C)C3)cc2)sc2c1CCN(C(C)C)C2` (centres undefined) as the compound, how does the survival read?
A: inactive: 95%

Q: Which survival does the source give for `CSc1ccc(CNCc2c(C(=O)O)c(C)n(Cc3ccc(F)cc3Cl)c2C)cc1` here?
A: inactive: 87%

Q: Which survival does the source give for `Cc1ccccc1Cn1cc(S(=O)(=O)c2ccc(Cl)cc2)c(=O)c2cc3c(cc21)OCO3` here?
A: inactive: 91%

Q: With `Cc1ccccc1CNC(=O)c1c(C)oc2c1C1=NCCN1C=N2` as the compound, how does the survival read?
A: inactive: 85%

Q: How did the survival turn out when `Cc1c(NC(=O)c2nc3ccccc3n(C)c2=O)cccc1[N+](=O)[O-]` was run?
A: inactive: 84%

Q: `COc1cccc(N2CCN(C(=O)C3CCCN(S(=O)(=O)c4ccc(Br)s4)C3)CC2)c1` (centres undefined) was tested. Which survival did it give?
A: inactive: 81%

Q: With `O=C(Cn1c(=O)n2nc(-c3ccccc3)nc2c2ccccc21)Nc1ccccc1C(F)(F)F` as the compound, how does the survival read?
A: inactive: 90%

Q: For `Nc1ncc(S(=O)(=O)NCc2cccc(Cl)c2)cn1`, which survival is on record?
A: inactive: 76%

Q: Which survival does the source give for `O=C1[C@@H]2CSC(c3ccc(F)cc3)N2C(=O)N1c1ccc(Cl)cc1` (some centres undefined) here?
A: inactive: 79%

Q: For `CCc1ccc(-n2c(=O)c3c4c(sc3n(Cc3ccc(F)cc3)c2=O)CCCC4)cc1`, which survival is on record?
A: inactive: 56%

Q: With `COc1ccc(CNC(=O)c2cccc(N3CCCS3(=O)=O)c2)cc1` as the compound, how does the survival read?
A: inactive: 68%

Q: Which survival does the source give for `Cc1ccc2oc(=O)c3cnn(CC(=O)NCc4ccccc4Cl)c3c2c1` here?
A: inactive: 87%

Q: With `COc1cccc(C(=O)N2CC(C)OC(C)C2)c1` (centres undefined) as the compound, how does the survival read?
A: inactive: 107%

Q: `Cc1ccc(-c2nc(CCNC(=O)C(=O)Nc3ccc(C)c(C)c3)cs2)cc1` was tested. Which survival did it give?
A: active: -3%

Q: `Cc1ccc(C)n1-c1nnc(N2CCC(C(=O)NCc3ccccc3Cl)CC2)s1` was tested. Which survival did it give?
A: inactive: 94%

Q: Which survival does the source give for `COc1ccc(S(=O)(=O)N(Cc2nc(-c3ccc(C)cc3)no2)C2CCCCC2)cc1` here?
A: inactive: 98%

Q: With `CCC(c1nnnn1Cc1ccccc1)N1CCN(c2cccc(C)c2C)CC1` (centres undefined) as the compound, how does the survival read?
A: inactive: 98%

Q: Which survival does the source give for `CC(=O)c1cc(-c2ccc(F)cc2)n(CCC(=O)NCc2ccccc2C)c1C` here?
A: inactive: 75%

Q: For `CCCCC12CN3CC(C)(CN(C1)C3c1cc(Br)ccc1O)C2=O` (centres undefined), which survival is on record?
A: inactive: 89%

Q: How did the survival turn out when `COc1ccc(NC(=O)c2ccc3nc(CCc4ccccc4)oc3c2)cc1` was run?
A: inactive: 124%

Q: `COc1ccccc1NC(=O)C1CCCN(c2nnc(C)c3c(C)n(-c4ccccc4)nc23)C1` (centres undefined) was tested. Which survival did it give?
A: inactive: 82%

Q: How did the survival turn out when `COc1ccc(NC(=O)C(NC(=O)c2ccccc2NC(=O)c2ccco2)C(C)C)cc1` (centres undefined) was run?
A: inactive: 110%

Q: With `CS(=O)(=O)c1ccc2nc(NC(=O)CS(=O)(=O)c3ccc(Cl)cc3)sc2c1` as the compound, how does the survival read?
A: inactive: 73%

Q: With `CCOC(=O)CNC(=O)Nc1cc(C(=O)NCc2cccc(F)c2)ccc1N1CCCC1` as the compound, how does the survival read?
A: inactive: 81%

Q: How did the survival turn out when `O=C(NCC(c1cccnc1)N1CCc2ccccc21)c1ccccc1Br` (centres undefined) was run?
A: inactive: 78%

Q: Which survival does the source give for `Cc1ccc(N2CCN(c3nc4ccc(C)cc4n4nnnc34)CC2)c(C)c1` here?
A: inactive: 76%

Q: `Cc1ccc(NC2=C(c3ccc(C(F)(F)F)cc3)C(=O)c3ccccc32)cc1F` was tested. Which survival did it give?
A: inactive: 67%

Q: `COc1cccc(C2C3CN(C(C)=O)CC=C3C(C#N)=C(N)C2(C#N)C#N)c1` (centres undefined) was tested. Which survival did it give?
A: inactive: 100%

Q: For `CCOc1ccccc1NC(=O)CSc1nc2ccccc2c2nc(CCn3cncc3C)nn12`, which survival is on record?
A: inactive: 125%

Q: For `CCOc1cc(C(=O)Nc2ccc(-c3nc4cc(C)ccc4o3)cc2)cc(OCC)c1OCC`, which survival is on record?
A: inactive: 49%

Q: How did the survival turn out when `O=C(Nc1ccc2nc(SCC(=O)N3CCCC3)sc2c1)c1ccccc1` was run?
A: inactive: 86%

Q: How did the survival turn out when `COc1cc2c(-c3ccccc3C)nc3c(c(C)nn3-c3ccccc3)c2cc1OC` was run?
A: inactive: 40%

Q: Which survival does the source give for `CCCN(CCC)C(=O)Cn1c(=O)n(-c2cccc(C(F)(F)F)c2)c(=O)c2c(C)c(C)sc21` here?
A: inactive: 83%

Q: `O=C(Cn1c(=O)n(Cc2ccco2)c(=O)c2cccnc21)Nc1ccccc1F` was tested. Which survival did it give?
A: inactive: 78%

Q: `Cc1ccc(OCC(=O)Nc2c(C(=O)c3ccccc3)oc3ccccc23)cc1C` was tested. Which survival did it give?
A: inactive: 85%

Q: Which survival does the source give for `CCc1ccc(NC(=O)CC2C(=O)N(c3cccc(C)c3)C(=O)N2Cc2cccs2)cc1` (centres undefined) here?
A: active: -3%

Q: For `Cc1ccc(S(=O)(=O)Nc2nc(O)c(C3=c4ccccc4=NC3=O)s2)cc1`, which survival is on record?
A: inactive: 103%

Q: How did the survival turn out when `CCOC(=O)c1noc2nc(C)n(CC(=O)Nc3cc(Cl)ccc3OC)c(=O)c12` was run?
A: inactive: 120%

Q: Which survival does the source give for `COc1cc(C(=O)Nc2ccc3nn(-c4ccc(F)cc4)nc3c2)cc(OC)c1OC` here?
A: inactive: 84%

Q: `CCCCn1c(=O)n(-c2ccc(Br)cc2F)c(=O)c2c3c(sc21)CN(C(C)=O)CC3` was tested. Which survival did it give?
A: inactive: 81%

Q: For `COc1ccc(CNC(=O)Cn2c(SCC(=O)N(C)c3ccccc3)nc3ccccc32)cc1`, which survival is on record?
A: inactive: 98%

Q: Which survival does the source give for `Cc1csc2nc(COC(=O)c3ccc(NC(=O)COc4ccccc4F)cc3)cc(=O)n12` here?
A: inactive: 134%

Q: For `Cc1ccc(CNC(=O)C2CCN(S(=O)(=O)N3CCC(C)CC3)CC2)cc1`, which survival is on record?
A: inactive: 77%

Q: With `Oc1c(C(c2ccccc2)N2CCN(Cc3ccccc3)CC2)sc2nc(-c3ccco3)nn12` (centres undefined) as the compound, how does the survival read?
A: active: 10%

Q: Which survival does the source give for `COc1ccccc1CNC(=O)C(=O)NCC(c1cccs1)S(=O)(=O)c1ccc(F)cc1` (centres undefined) here?
A: inactive: 99%

Q: With `CC1=C(C(=O)OCC2CCCCC2)C(c2ccc(F)cc2F)CC(=O)N1` (centres undefined) as the compound, how does the survival read?
A: inactive: 85%

Q: `COc1cc(Cl)c(C)cc1NC(=O)CCc1nc2cccnc2n1-c1ccccc1` was tested. Which survival did it give?
A: inactive: 84%

Q: Which survival does the source give for `COc1ccc(NC(=O)Cn2c(SCc3cccc(Cl)c3)nc3ccncc32)c(OC)c1OC` here?
A: inactive: 65%

Q: How did the survival turn out when `CC1=C(C(=O)Nc2ccccc2)C(c2ccccc2)n2nc(-c3ccco3)nc2N1` (centres undefined) was run?
A: inactive: 87%

Q: How did the survival turn out when `CC(=O)Nc1nnc(SCc2cc(=O)c3cc(C)ccc3[nH]2)s1` was run?
A: inactive: 73%

Q: For `CCCCNC(=O)C1CCN(S(=O)(=O)c2cc(Br)cc3c2N(C(=O)CC)CC3)CC1`, which survival is on record?
A: inactive: 97%

Q: How did the survival turn out when `Cn1c(=O)cc(SCC(=O)NCc2ccc(F)cc2)c2ccc(Cl)cc21` was run?
A: inactive: 81%

Q: With `COc1ccc(-c2nnc(SCC(=O)Nc3cccc(F)c3)s2)cc1` as the compound, how does the survival read?
A: inactive: 70%

Q: For `Cc1ccc(NCc2cccn2-c2nnc(N3CCCCCC3)s2)cc1`, which survival is on record?
A: inactive: 77%

Q: How did the survival turn out when `CCOc1ccccc1NC(=O)C(C)Sc1cc(-c2ccccc2)nc(C)n1` (centres undefined) was run?
A: inactive: 78%

Q: Which survival does the source give for `O=C1CCN(Cc2ccccc2)C(=S)N1` here?
A: inactive: 95%

Q: How did the survival turn out when `COC(=O)C1=CN(C2CC2)C=C(C(=O)OC)C1c1ccsc1` was run?
A: inactive: 110%

Q: With `Cc1nc(-c2ccc(F)cc2)sc1CCNC(=O)C(=O)Nc1ccc2c(c1)OCCO2` as the compound, how does the survival read?
A: inactive: 80%

Q: `OCCN(CCO)c1ncnc2c1cnn2-c1ccc(F)cc1` was tested. Which survival did it give?
A: active: 1%

Q: How did the survival turn out when `COC(=O)c1cc(-c2ccc(C)cc2)c2c(=O)n(C)c(=O)n(C)c2n1` was run?
A: inactive: 105%

Q: `COc1ccccc1C(=O)Oc1ccc(C(c2c(C)[nH][nH]c2=O)c2c(C)[nH][nH]c2=O)cc1` was tested. Which survival did it give?
A: inactive: 83%

Q: How did the survival turn out when `Nc1ncnc2nc(SCCO)[nH]c12` was run?
A: inactive: 106%

Q: With `COc1ccc(CC(=O)Nc2ccc(-c3nc4ccccc4s3)c(C)c2)cc1OC` as the compound, how does the survival read?
A: active: 10%

Q: Which survival does the source give for `COc1ccc2oc(=O)c(C(=O)N3CCN(c4ccc(C)cc4)CC3)cc2c1` here?
A: inactive: 74%

Q: `COc1ccc(-c2cc(C(F)(F)F)nc(NCCc3ccccc3)n2)cc1OC` was tested. Which survival did it give?
A: inactive: 81%

Q: With `Cc1csc2nc(COC(=O)c3ccccc3NC(=O)c3ccc(C(C)(C)C)cc3)cc(=O)n12` as the compound, how does the survival read?
A: inactive: 55%

Q: `COc1cccc(CNC(=O)c2cc(S(=O)(=O)N3CCCCC3)c[nH]2)c1` was tested. Which survival did it give?
A: inactive: 83%

Q: With `CSc1nn(Cc2ccc(C)cc2)c(N)c1S(=O)(=O)c1ccccc1` as the compound, how does the survival read?
A: inactive: 67%

Q: With `COc1ccc(-c2cc(C(=O)Nc3c(C)n(C)n(-c4ccccc4)c3=O)no2)cc1OC` as the compound, how does the survival read?
A: inactive: 78%

Q: Which survival does the source give for `O=C(CCCn1c(=O)c2cccn2c2ccccc21)NCCc1ccc(Cl)cc1` here?
A: inactive: 31%

Q: How did the survival turn out when `CCOC(=O)c1c(NC(=O)C2c3ccccc3Oc3ccccc32)sc(C)c1C` was run?
A: inactive: 21%

Q: For `CCOc1ccc(C(=O)OC(C)CN2CCCCC2)cc1` (centres undefined), which survival is on record?
A: inactive: 103%

Q: `CCOc1cccc2sc(N(Cc3cccnc3)C(=O)c3ccc(C#N)cc3)nc12` was tested. Which survival did it give?
A: inactive: 89%
